Reference: PubChem BioAssay AID1159614 (National Center for Advancing Translational Sciences (NCATS), 2016)
The whole screen tested about 45,000 compounds, of which about 65 (0.1%) were called active. The call rests on the fitted dose curve; in most records, active means well fitted activation curve with a large enough effect; inconclusive means small, poorly fitted or top-dose-only effect; inactive means no such curve, though single readings can be large or run the other way. The list shows a part of the results.

Molecular target: Galactocerebrosidase (Homo sapiens) (UniProt P54803)
Test: A Novel Cell-Based Assay to Identify Small Molecules for B -Galactocerebrosidase; further: 0% is about no effect; nearly all actives have a fitted effect of over 65% in size
Settings: 145M-Twi-hGALC-G270D cells, HMU-beta-Gal fluorescence, 48 h; series mostly up to 57.5 µM; activation: at the top concentration
Procedure, shortened: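 qHTS, 1536-well; 145M-Twi-hGALC-G270D cells (WT line also made) in DMEM/F12 + 10% FBS; compound incubation on live cells; HMU-β-gal 0.1 mM final, pH 5.2, NaTC; carbonate stop; fluorescence increase = enhanced residual activity.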

UniProt P54803, sequence (P54803 whole entry, looked up): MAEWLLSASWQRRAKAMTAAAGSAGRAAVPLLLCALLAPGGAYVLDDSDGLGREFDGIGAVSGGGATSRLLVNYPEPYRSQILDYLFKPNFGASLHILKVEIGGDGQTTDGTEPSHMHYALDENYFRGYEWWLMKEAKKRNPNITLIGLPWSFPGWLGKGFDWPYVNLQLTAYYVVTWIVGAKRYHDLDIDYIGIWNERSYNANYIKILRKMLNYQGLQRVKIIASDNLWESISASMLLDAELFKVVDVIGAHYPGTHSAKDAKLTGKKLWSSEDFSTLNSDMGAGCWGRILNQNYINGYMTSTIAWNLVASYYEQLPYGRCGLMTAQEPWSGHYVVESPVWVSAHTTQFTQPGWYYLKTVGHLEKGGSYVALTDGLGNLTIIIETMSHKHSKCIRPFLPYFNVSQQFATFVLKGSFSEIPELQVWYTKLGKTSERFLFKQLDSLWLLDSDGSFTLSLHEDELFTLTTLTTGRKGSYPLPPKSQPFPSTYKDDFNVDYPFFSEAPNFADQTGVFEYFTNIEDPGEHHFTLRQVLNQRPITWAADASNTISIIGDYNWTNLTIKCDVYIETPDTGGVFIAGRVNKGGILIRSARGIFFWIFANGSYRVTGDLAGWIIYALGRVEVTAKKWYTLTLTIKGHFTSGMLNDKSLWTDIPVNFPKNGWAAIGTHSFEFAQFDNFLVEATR

activation, inactive:
CCc1ccc(C2=CC(c3cccc(C)c3)n3c(nc4ccccc43)N2)cc1 (configuration not stated) -9.92%
Cc1ccc(C)c(NC(=O)Cn2cnc3c(oc4ccccc43)c2=O)c1 -11.9%
COc1ccc(NC(=O)C(c2ccccc2)N2Cc3ccccc3C2=O)cc1 (configuration not stated) -21.4%
Cc1cc(C)c2c(=O)cc(C(=O)Nc3ccc(C)c(Cl)c3)oc2c1 -2.59%
CCC(=O)N1c2ccccc2CC1C(=O)NCCc1ccc(SC)cc1 (configuration not stated) -17.8%
Cc1ccccc1OCCn1cc(C(=O)C2CCCCC2)c2ccccc21 -16.4%
COCCn1c(-c2ccccc2)c(C)n2c3c(=O)n(C)c(=O)n(C)c3nc12 -3.87%
CCOC(=O)Cn1c(C2CC(=O)N(c3ccc(C)cc3)C2)nc2ccccc21 (configuration not stated) -33.7%
CCNC(=O)N1CCN(CCCC(c2ccc(F)cc2)c2ccc(F)cc2)CC1 -8.45%
Cc1ccc(C)c(N2CCN(C(=O)Cn3cnc4sc(C)c(S(=O)(=O)N5CCN(c6ncccn6)CC5)c4c3=O)CC2)c1 7.39%
O=[N+]([O-])c1ccc(C(c2sc3nc(-c4ccco4)nn3c2O)N2CCN(Cc3ccccc3)CC2)cc1 (configuration not stated) 4.17%
Cc1oc(-c2ccccc2Cl)nc1CS(=O)CC(=O)N1CCN(c2cccc(C(F)(F)F)c2)CC1 (configuration not stated) 0.952%
Cc1nc2sccn2c(=O)c1S(=O)(=O)Nc1ccc(N2CCN(C)CC2)cc1 -10.1%
COc1cc2c(cc1OC)-c1cc(=Nc3c(C)cc(C)cc3C)n(C)c(=O)n1CC2 -16.7%
Cn1nnnc1SCCCNCc1cc(Br)ccc1OCc1ccccc1 -7.2%
Cc1cccc(N2CCN(C(=O)c3sc4nc5n(c(=O)c4c3C)CCC5)CC2C)c1 (configuration not stated) -12.6%
CCCCSCCCNC(=O)C1CCN(Cc2nc(-c3ccc(CC)cc3)oc2C)CC1 -14.7%
CCCCNc1ccc(C(=O)OCCN(CC)CC)cc1 -12.9%
CCOc1ccc(CCNC(=O)C(CC)n2nc(C)c3c(C)n(-c4ccccc4)nc3c2=O)cc1 (configuration not stated) -8.6%
COc1ccc(-c2c(C#N)c(SCC(=O)Nc3ccc(C)c(C)c3)nc(C)c2C(=O)Nc2ccc(Cl)cc2)cc1 -8.2%
Cc1cc(-c2ccc(S(=O)(=O)Nc3cccc(C)c3C)s2)on1 -29%
CCOC(=O)c1c(C)[nH]c(C)c1S(=O)(=O)N1CCC(C(=O)NCc2ccc(F)cc2)CC1 -7.14%
COc1cc(OC)c(NC(=O)NCCn2nnc3cc(S(=O)(=O)N(C)C)ccc32)cc1Cl -2.1%
COc1ccc(-c2nn3c(=O)cc(CN4CCN(C(=O)Nc5cc(C)ccc5C)CC4)nc3s2)cc1 -17.2%
O=C(NC1CCCC1)c1ccc(CSc2nc3cccnc3n2Cc2cccc(F)c2)cc1 -13.1%
COC(=O)c1ccc(OCC2c3cc(OC)c(OC)cc3CCN2C(=O)c2ccc(OC)cc2)cc1 (configuration not stated) -21.1%
CC(C)(C)C1CCc2nc(NC(=O)c3cccc(Cl)c3)sc2C1 (configuration not stated) -24.6%
O=c1[nH]c(SCc2ccccc2)nc2c1CCCC2 -8.65%
Cc1nc2ccn(Cc3cccnc3)c(=O)c2cc1C(=O)NCc1ccccc1 -13.8%
O=C(CSc1nnc(-c2ccccc2Br)n1-c1ccccc1)c1ccc(F)cc1 -31.3%
Cc1ccc2oc(=O)n(CCNC(=O)Nc3ccccc3C)c2c1 -0.101%
CCc1ccc(OCC(=O)Nc2ccc(S(=O)(=O)Nc3onc(C)c3C)cc2)cc1 11.8%
COc1ccc(OC2CCN(S(=O)(=O)c3cccc(F)c3)CC2)cc1 11.7%
CCCCn1c(=O)c2oc3ccccc3c2n(CC(=O)Nc2cc(C)ccc2C)c1=O -12.4%
Cc1ccc(CNC(=O)Cc2c(C(=O)O)c(C)cn2C)cc1 -11.2%
CC(=O)N1CCCC1c1nc2ccccc2n1Cc1c(F)cccc1Cl (configuration not stated) -8.89%
COc1ccc(NC(=O)C2=C(C)Nc3ncnn3C2c2sccc2C)cc1 (configuration not stated) 4.09%
COc1cc(OC)c(NC(=O)Cc2c(C(=O)O)c(C)cn2C)cc1Cl -11%
COc1ccc(C2C(C(=O)Nc3ccccc3)=C(C)Nc3nc(-c4ccccc4)nn32)c(OC)c1 (configuration not stated) -22%
Cc1cccc(NC(=O)Cn2c(=O)n(CCc3ccccc3)c(=O)c3ccccc32)c1 -9.57%
CCOc1ccc(CN2C(=O)c3ccccc3Sc3ccc(C(=O)NCc4ccc5c(c4)OCO5)cc32)cc1 -19%
Cc1ccccc1NC(=O)Nc1csc2c1CCCC2 -17.7%
COc1ccc(C(=O)CSc2nc3cc(C(=O)NC4CCCC4)ccc3c(=O)n2CC2CCCO2)cc1 (configuration not stated) -10.4%
Cc1cccc(C(=O)N2CCNC(=O)C2CC(=O)Nc2ccc(F)cc2)c1 (configuration not stated) -5.22%
COc1ccc(C)cc1NC(=O)C(NS(=O)(=O)c1cccs1)c1ccccc1 (configuration not stated) -8.04%
COc1cc(OC)c(NC(=O)c2sc3nc4n(c(=O)c3c2C)CCCC4)cc1Cl -4.62%
COc1ccc(S(=O)(=O)NCCc2sc(C)nc2C)cc1 -39%
CCCc1cnc2c(c1SCc1cccc(C)c1)c(=O)n(C)c(=O)n2C -17.5%
CCCOc1cccc(C(=O)Nc2cc(-c3nc4ccccc4[nH]3)ccc2C)c1 -14.9%
CCn1c(CNC(=O)C23CC4CC(CC(C4)C2)C3)nnc1SCC(=O)Nc1ccc(C)cc1 -2.88%
CCOC(=O)[C@H](CCc1ccccc1)N[C@H]1CCc2ccccc2N(CC(=O)O)C1=O -9.26%
CC(=O)c1ccc(NC(=O)c2sc(-n3nc(C)c(CCC(C)C)c3C)nc2C)cc1 -10.5%
Cc1ccc2c(Sc3ccccc3)c(C(=O)NCc3ccccc3F)[nH]c2c1 -7.02%
CCOc1ccccc1NC(=O)CSc1nc2ccccc2nc1Cc1ccc(C)cc1 -9.17%
Cc1ccc(S(=O)Cc2ccc(C(=O)NCc3ccc(OC(C)C)cc3)o2)cc1 (configuration not stated) -7.14%
Cc1nc2c3cccnc3nn2c(C)c1CCC(=O)NCc1ccccc1Cl -10.3%
Cc1cc(C)cc(NC(=O)c2nnn(Cc3cccc(Br)c3)c2N)c1 -39.8%
Cc1ccc(CCNC(=O)CN2C(=O)COc3ccc(S(=O)(=O)N4CCCC4)cc32)cc1 -11.4%
O=C(CC1C(=O)OCCN1Cc1ccccc1)Nc1cccc(Cl)c1 (configuration not stated) -10.7%
CCOc1cc(Cn2c(-c3ccc(O)c(OCC)c3)nc3ccccc32)ccc1O -15.1%
COc1ccc(-n2c(-c3ccccc3F)nc3c(cnn3-c3ccc(C)cc3)c2=O)cc1 -6.56%
CCCCC(=O)N1CC(=O)Nc2ccc(F)cc2C1c1ccc(F)cc1 (configuration not stated) -6.18%
